Test results: a compilation of properties of binary mixtures (doi:10.1007/s10953-010-9507-z)
The densities may have been worked out from excess volumes.

Assay: xn = mol fraction of the nth substance listed
Conditions: 298.15 K, 101 kPa

Compound | mass density (x1 = 0.0522) [kg/m3] | mass density (x1 = 0.1818) [kg/m3] | mass density (x1 = 0.2982) [kg/m3] | mass density (x1 = 0.4204) [kg/m3] | mass density (x1 = 0.4752) [kg/m3] | mass density (x1 = 0.5937) [kg/m3] | mass density (x1 = 0.6953) [kg/m3] | mass density (x1 = 0.7954) [kg/m3] | mass density (x1 = 0.8933) [kg/m3] | mass density (x2 = 0.0793) [kg/m3] | mass density (x2 = 0.1393) [kg/m3] | mass density (x2 = 0.2058) [kg/m3] | mass density (x2 = 0.2578) [kg/m3] | mass density (x2 = 0.345) [kg/m3] | mass density (x2 = 0.384) [kg/m3] | mass density (x2 = 0.4122) [kg/m3] | mass density (x2 = 0.5622) [kg/m3] | mass density (x2 = 0.688) [kg/m3] | mass density (x2 = 0.7967) [kg/m3] | mass density (x2 = 0.8984) [kg/m3]
CCOC(C)=O + CCCC[n+]1ccn(C)c1.O=S(=O)([N-]S(=O)(=O)C(F)(F)F)C(F)(F)F | 1427 | 1401.1 | 1372.5 | 1335.8 | 1316.1 | 1265.7 | 1210 | 1138.6 | 1043.8 |  |  |  |  |  |  |  |  |  |  | 
CCCC[n+]1ccn(C)c1.O=S(=O)([N-]S(=O)(=O)C(F)(F)F)C(F)(F)F + CCO |  |  |  |  |  |  |  |  |  | 1425.6 | 1416.2 | 1404.6 | 1394.5 | 1374.8 | 1364.9 | 1357.2 | 1304.8 | 1239.3 | 1153.3 | 1023.9
